Laboratory results reported in patent US20110059076A1, “HUMAN SERUM ALBUMIN LINKERS AND CONJUGATES THEREOF” (priority 2008, published 2011).

What was measured:
Type in all cases: cell-based
Settings in all cases: 24 hour pre-treatment, concentration of 10^−8 molar and above
[1] = system: phosphorylated ErbB3 in BT474 breast cancer cells; experiment: pErbB3 ELISA in BT474 cells after HRG stimulation
Experimental: (§1) Except as noted, ELISA reagents for total and phospho-ErbB3 ELISAs are purchased from R&D Systems as DUOSET kits. 96-well NUNC MAXISORB plates are coated with 50 μl of an antibody and incubated overnight at room temperature. Next morning, plates are washed 3 times with 1000 μl/well in a BIOTEK plate washer with Dulbecco's phosphate buffered saline without calcium or magnesium (PBS) with added Tween detergent (PBST) (0.05% Tween-20). […] The plates are washed 3 times with 1000 μl/well in the BIOTEK plate washer with PBST. Cells are grown at 37° C. and 5% carbon dioxide, washed with cold PBS, then harvested with mammalian protein extract (MPER) lysis buffer (Pierce, 78505) to which 150 mM NaCl, 5 mM sodium pyrophosphate, 10 uM bpV (phen), 50uM phenylarsine, 1 mM sodium orthovanadate, and protease inhibitor cocktail (Sigma, P2714) is added. 50 μL of cell lysates and standards diluted in 50% Lysis buffer and 1% BSA are used in duplicates for further processing. Samples are incubated for 2hrs at 4° C. on a plate shaker and washed as before. About 50 μl of a detection antibody diluted in 2% BSA, PBST is added and incubated for about 1-2 hrs at room temperature. […] About 50 μL of SUPERSIGNAL ELISA Pico (Thermo Scientific) substrate is added and the plate is read using a FUSION plate reader. […]

[2] = system: phosphorylated AKT in BT474 breast cancer cells; experiment: pAKT ELISA in BT474 cells after HRG stimulation
Experimental: as §1

[3] = system: phosphorylated ERK in BT474 breast cancer cells; experiment: pERK ELISA in BT474 cells after HRG stimulation
Experimental: as §1

B1: B1B2-1: HSA linker conjugate tested in Example 5; probably B1D2-1 (H3-HSA-B1D2), i.e. B2B3-1 (protein)
chain: QVQLQESGGGLVKPGGSLRLSCAASGFTFSSYWMSWVRQAPGKGLEWVANINRDGSASYYVDSVKGRFTISRDDAKNSLYLQMNSLRAEDTAVYYCARDRGVGYFDLWGRGTLVTVSSASTGGGGSGGGGSGGGGSQSALTQPASVSGSPGQSITISCTGTSSDVGGYNFVSWYQQHPGKAPKLMIYDVSDRPSGVSDRFSGSKSGNTASLIISGLQADDEADYYCSSYGSSSTHVIFGGGTKVTVLGAAS[about 600 residues omitted here]AAALQVQLVQSGAEVKKPGESLKISCKGSGYSFTSYWIAWVRQMPGKGLEYMGLIYPGDSDTKYSPSFQGQVTISVDKSVSTAYLQWSSLKPSDSAVYFCARHDVGYCTDRTCAKWPEWLGVWGQGTLVTVSSGGGGSSGGGSGGGGSQSVLTQPPSVSAAPGQKVTISCSGSSSNIGNNYVSWYQQLPGTAPKLLIYDHTNRPAGVPDRFSGSKSGTSASLAISGFRSEDEADYYCASWDYTLSGWVFGGGTKLTVLG
greater than 50%: inhibition of HRG-induced phosphorylation of ErbB3 [1] | inhibition of HRG-induced phosphorylation of AKT [2] | inhibition of HRG-induced phosphorylation of ERK [3]
